At least one peptide structure holds a part that was inferred or is arguable (an end, a ring closure or a residue). Where a SMILES comes first, the peptide text is derived from it. Where no end group is shown, it is not given here. [ ]: non-standard residue; d: D form. hSer = N[C@@H](CCO)C(=O)O
How the values were obtained:
[1] = Stability test: remained activity of motilin analogue solution preserved at 60°C, measured by HPLC; assay type: physicochemical; conditions: 0.lmg/ml in phosphate buffer (pH 5.0), sealed glass vials, activity just before preservation = 100%
rabbit duodenum muscle = assay: Intestinal canal contraction activity, Magnus method; assay type: cell-based; conditions: relative to chemically synthesized human motilin = 100%

| Compound | Remained activity (%) 10th day [1] | Remained activity (%) After 1 month [1] | Specific activity (%) (rabbit duodenum muscle) |
| --- | --- | --- | --- |
| CC[C@H](C)[C@H](NC(=O)[C@@H]1CCCN1C(=O)[C@@H](NC(=O)[C@@H](N)Cc1ccccc1)C(C)C)C(=O)N[C@@H](Cc1ccccc1)C(=O)N[C@H](C(=O)N[C@@H](Cc1ccc(O)cc1)C(=O)NCC(=O)N[C@@H](CCC(=O)O)C(=O)N[C@@H](CC(C)C)C(=O)N[C@@H](CCC(N)=O)C(=O)N[C@@H](CCCNC(=N)N)C(=O)N[C@@H](CC(C)C)C(=O)N[C@@H](CCC(N)=O)C(=O)N[C@@H](CCC(=O)O)C(=O)N[C@@H](CCCCN)C(=O)N[C@@H](CCC(=O)O)C(=O)N[C@@H](CCCNC(=N)N)C(=O)N[C@@H](C)C(=O)N[C@@H](CCCCN)C(=O)NCC(=O)N[C@@H](CCC(N)=O)C(=O)N[C@@H](CCO)C(=O)O)[C@@H](C)O [[Leu^13, Ala^19]motilin-Hse] (H-FVPIFTYGELQRLQEKERAKGQ[hSer]-OH) | 97.2% | 93.5% | 90% |
| CC[C@H](C)[C@H](NC(=O)[C@@H]1CCCN1C(=O)[C@@H](NC(=O)[C@@H](N)Cc1ccccc1)C(C)C)C(=O)N[C@@H](Cc1ccccc1)C(=O)N[C@H](C(=O)N[C@@H](Cc1ccc(O)cc1)C(=O)NCC(=O)N[C@@H](CCC(=O)O)C(=O)N[C@@H](CC(C)C)C(=O)N[C@@H](CCC(N)=O)C(=O)N[C@@H](CCCNC(=N)N)C(=O)N[C@@H](CC(C)C)C(=O)N[C@@H](CCC(N)=O)C(=O)N[C@@H](CCC(=O)O)C(=O)N[C@@H](CCCCN)C(=O)N[C@@H](CCC(=O)O)C(=O)N[C@@H](CCCNC(=N)N)C(=O)N[C@@H](CC(=O)O)C(=O)N[C@@H](CCCCN)C(=O)NCC(=O)N[C@@H](CCC(N)=O)C(=O)N[C@@H](CCO)C(=O)O)[C@@H](C)O [[Leu^13, Asp^19]motilin-Hse, reference compound] (H-FVPIFTYGELQRLQEKERDKGQ[hSer]-OH) | 77.6% | 45.6% | 95% |
| CC[C@H](C)[C@H](NC(=O)[C@@H]1CCCN1C(=O)[C@@H](NC(=O)[C@@H](N)Cc1ccccc1)C(C)C)C(=O)N[C@@H](Cc1ccccc1)C(=O)N[C@H](C(=O)N[C@@H](Cc1ccc(O)cc1)C(=O)NCC(=O)N[C@@H](CCC(=O)O)C(=O)N[C@@H](CC(C)C)C(=O)N[C@@H](CCC(N)=O)C(=O)N[C@@H](CCCNC(=N)N)C(=O)N[C@@H](CC(C)C)C(=O)N[C@@H](CCC(N)=O)C(=O)N[C@@H](CCC(=O)O)C(=O)N[C@@H](CCCCN)C(=O)N[C@@H](CCC(=O)O)C(=O)N[C@@H](CCCNC(=N)N)C(=O)N[C@@H](CCC(N)=O)C(=O)N[C@@H](CCCCN)C(=O)NCC(=O)N[C@@H](CCC(N)=O)C(=O)N[C@@H](CCO)C(=O)O)[C@@H](C)O [[Leu^13, Gln^19]motilin-Hse] (H-FVPIFTYGELQRLQEKERQKGQ[hSer]-OH) | 97.6% | 93.8% | 110% |
| CC[C@H](C)[C@H](NC(=O)[C@@H]1CCCN1C(=O)[C@@H](NC(=O)[C@@H](N)Cc1ccccc1)C(C)C)C(=O)N[C@@H](Cc1ccccc1)C(=O)N[C@H](C(=O)N[C@@H](Cc1ccc(O)cc1)C(=O)NCC(=O)N[C@@H](CCC(=O)O)C(=O)N[C@@H](CC(C)C)C(=O)N[C@@H](CCC(N)=O)C(=O)N[C@@H](CCCNC(=N)N)C(=O)N[C@@H](CC(C)C)C(=O)N[C@@H](CCC(N)=O)C(=O)N[C@@H](CCC(=O)O)C(=O)N[C@@H](CCCCN)C(=O)N[C@@H](CCC(=O)O)C(=O)N[C@@H](CCCNC(=N)N)C(=O)N[C@@H](CCC(=O)O)C(=O)N[C@@H](CCCCN)C(=O)NCC(=O)N[C@@H](CCC(N)=O)C(=O)N[C@@H](CCO)C(=O)O)[C@@H](C)O [[Leu^13, Glu^19]motilin-Hse] (H-FVPIFTYGELQRLQEKEREKGQ[hSer]-OH) | 98.5% | 95.3% | 130% |
| CC[C@H](C)[C@H](NC(=O)[C@@H]1CCCN1C(=O)[C@@H](NC(=O)[C@@H](N)Cc1ccccc1)C(C)C)C(=O)N[C@@H](Cc1ccccc1)C(=O)N[C@H](C(=O)N[C@@H](Cc1ccc(O)cc1)C(=O)NCC(=O)N[C@@H](CCC(=O)O)C(=O)N[C@@H](CC(C)C)C(=O)N[C@@H](CCC(N)=O)C(=O)N[C@@H](CCCNC(=N)N)C(=O)N[C@@H](CC(C)C)C(=O)N[C@@H](CCC(N)=O)C(=O)N[C@@H](CCC(=O)O)C(=O)N[C@@H](CCCCN)C(=O)N[C@@H](CCC(=O)O)C(=O)N[C@@H](CCCNC(=N)N)C(=O)N[C@@H](CC(N)=O)C(=O)N[C@@H](CCCCN)C(=O)NCC(=O)N[C@@H](CCC(N)=O)C(=O)N[C@@H](CCO)C(=O)O)[C@@H](C)O [[Leu^13]motilin-Hse, reference compound] | 86.9% | 61.8% | 120% |
| FVPIFTYGELQRLQEKEREKGQ [[Leu^13, Glu^19]motilin] | 98.7% | 96.2% |  |

Reference: EP0561130B1, “Stabilized biologically active polypeptide and use thereof” (SANWA KAGAKU KENKYUSHO CO., LTD., priority 1992, dated 1997)
